# Measured values taken from PubChem BioAssay AID485313 (National Center for Advancing Translational Sciences (NCATS), 2010).
# “And” between values parts separate entries of the source, which are not always exact repeats. Equal values may be shown once. Out of some 320,000 compounds screened, about 7,600 (2.4%) were called active. The inconclusive results got no clear call from the source; some entries with a clear call stand among them for comparison. Calls come from the whole dose curve; as a rule, active = well fitted activation curve with a large enough effect; inconclusive = small, poorly fitted or top-dose-only effect; inactive = no such curve, though single readings can be large or run the other way. Potencies beside an inconclusive call are fits to weak or partial responses and may not hold up.
# Assay: qHTS Assay for NPC1 Promoter Activators; note: nearly all actives have a fitted effect of over 60% in size;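 for activation: reporter is driven by a mutant NPC1 promoter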
# Settings: Huh7 NPC1 promoter luciferase reporter, 24 h; series mostly up to 9.22 µM
# Summary of the method: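 Huh7 reporter cells (NPC1 promoter driving luciferase) are dosed with compound for 24 h at 37 °C, 5% CO2; luciferase detection reagent is then added and luminescence measured after 10 min at ambient temperature.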
# Potency is the fitted concentration of half-maximal effect; tags give direction and shape of the fitted curve.
row,SMILES,Potency
1,COC(=O)CSc1nnc(CNC(=O)Cc2ccccc2)n1-c1ccccc1OC,"inconclusive: 1.26 µM [activator, single point]"
2,CC1CCN(C(=O)Cn2cnc3c(cnn3C(C)(C)C)c2=O)CC1,"inconclusive: 2.82 µM [activator, partial curve]"
3,Cc1cccc(-n2c(C)cc(/C=N/NC(=O)c3ccc(CN4CCOCC4)cc3)c2C)c1,inactive
4,COc1ccc(/C=C2\SC(=O)N(CCNC(=O)C3CC4C=CC3C4)C2=O)cc1 (stereo not given),active: 2.82 µM
5,CC(C)c1ccc(/C=N\NC(=O)c2ccc(Cn3cccn3)o2)cc1,"inconclusive: 5.62 µM [activator, single point]"
6,CCOC(=O)c1cn2ccc(C)cc2n1,inactive
7,Oc1ccccc1/C=C/c1noc(-c2ccccc2O)n1,"inconclusive: 5.62 µM [activator, single point]"
8,Cn1c(C(=O)NC2CCCCC2)cc2c(=O)n3ccccc3nc21,"inconclusive: 5.62 µM [activator, single point]"
9,O=C(CSc1nnc(C2CCCCC2)o1)Nc1ccccc1Cl,"inconclusive: 2.51 µM [activator, partial curve]"
10,Cn1c(CNC(=O)CNC(=O)c2ccccc2)cc(=O)n(C)c1=O,inactive
11,CC(C)(CO)NC(=O)CCCOc1ccc(Cl)cc1Cl,"inconclusive: 3.55 µM [activator, single point]"
12,Cc1c(C(=O)NC2CCS(=O)(=O)C2)oc2ccccc12 (stereo not given),inactive
13,COc1ccc2c(c1)CCc1c(C(=O)NCC(C)C)noc1-2,active: 1.12 µM
14,Cn1c(-c2nnn(-c3ccc(F)cc3)n2)cc2ccccc21,"inconclusive: 3.98 µM [activator, single point]"
15,CN1CCC(NC(=S)NC2CC2)CC1,inactive
16,COc1ccccc1-c1nc(-c2ccc(Br)o2)no1,active: 3.55 µM
17,Nc1c(-c2ccccc2)cnn1-c1ccccc1,active: 3.16 µM
18,O=C(N/N=C/c1ccccn1)c1ccc(Cl)cc1,"inconclusive: 3.55 µM [activator, partial curve]"
19,CN(Cc1nc(-c2cccc(Cl)c2)no1)C1CCOCC1,"inconclusive: 2.82 µM [activator, partial curve]"
20,COc1cc(C2NC(=S)NC(C)=C2C(=O)Nc2ccc(C)cc2)ccc1O (stereo not given),"inconclusive: 3.98 µM [activator, partial curve]"
21,CCCNC(=O)c1cc(-c2ccc(Br)cc2)on1,active: 2.24 µM
22,CCc1ccccc1Nc1nc(N)nc(COC(=O)C2=COCCO2)n1,inactive
23,Cc1nnc(SCC(=O)Nc2cc(-c3cc(C)c(C)cc3C)nn2-c2ccccc2)s1,inactive
24,CN(C)c1ccc(C#Cc2ccc3cc(CCCO)oc(=O)c3c2)cc1,active: 2.82 µM
25,CCCNC(=O)COC(=O)c1cc(-c2ccc(OC)cc2)nc2ccccc12,inactive
26,COc1ccc(CC(=O)N(C)CC(=O)Nc2cccc(F)c2)cc1S(=O)(=O)N1CCOCC1,inactive
27,NC(=O)C1=NOC(CNc2ncc(C(F)(F)F)cc2Cl)C1 (stereo not given),inactive

row,SMILES,Potency
1,CNS(=O)(=O)c1ccc(NC(=O)c2ccccn2)cc1,"inconclusive: 2.51 µM [activator, partial curve]"
2,O=C(/C=C/N1CCOCC1)c1coc2ccccc12,active: 1.58 µM
3,CCOc1ccc(C(=O)NCC(c2ccco2)N2CCOCC2)cc1 (stereo not given),inactive
4,CCCCCC(=O)Nc1ccc(S(=O)(=O)NC2=NCCCCC2)cc1,inactive
5,Cc1ccc(C)c(NC(=O)c2cc(-c3cc(C)ccc3O)n[nH]2)c1,active: 2 µM
6,Cc1ccc2c(CC(=O)Nc3ccc(F)c(S(=O)(=O)N4CCOCC4)c3)coc2c1,inactive
7,O=C(Nc1ccc2nc(-c3ccccn3)[nH]c2c1)C1CCCCC1,"inconclusive: 2.51 µM [activator, partial curve]"
8,C(=N\Nc1nc2ccccc2[nH]1)/c1ccccn1,"inconclusive: 1.26 µM [activator, single point]"
9,c1ccc(CSc2nnc(-c3cccs3)o2)cc1,active: 2.82 µM
10,c1ccc2[nH]c(-c3ccnc4ccccc34)nc2c1,"inconclusive: 3.16 µM [activator, partial curve] and inconclusive: 4.47 µM [activator, partial curve]"
11,COc1ccc(C(=O)Nc2ccccc2C(=O)O)cc1Cl,"inconclusive: 3.55 µM [activator, partial curve]"
12,Cc1ccccc1OCCN1C(=O)c2ccccc2C1=O,"inconclusive: 2.82 µM [activator, partial curve]"
13,Cc1csc2c(N3CCCCC3)ncnc12,"inconclusive: 2.82 µM [activator, partial curve]"
14,COc1ccc(C(=O)N(C)C2CCCN(Cc3ccccc3F)C2)cc1C (stereo not given),inactive
15,Cc1ccc(NC(=O)O/N=C/c2ccc(F)cc2)cc1,"inconclusive: 2.82 µM [activator, single point]"
16,Cc1ccc(S(=O)(=O)Nc2nnc(C(C)(C)C)s2)cc1,inactive
17,O=C(O)c1ccc2c(c1)SC1=NS(=O)(=O)CCN12,inactive
18,O=C(Cn1cc(C(F)(F)F)cc(Cl)c1=O)NCc1ccccc1,"inconclusive: 3.16 µM [activator, partial curve]"
19,COC(=O)c1cc(S(=O)(=O)N2CCN(Cc3ccccc3)CC2)cn1C,inactive
20,CC(C)(CO)NC(=O)c1ccc2nc(Cc3cccc(Cl)c3)oc2c1,"inconclusive: 3.16 µM [activator, single point]"
21,CC(=O)NC12CC3CC(C1)CC(C(=O)N(C)Cc1cccc(Cl)c1Cl)(C3)C2,inactive
22,COc1ccc(-c2csc(N3C(=O)CNC3=S)n2)cc1,active: 0.562 µM
23,CN(C)S(=O)(=O)c1cccc(C(=O)OCC(=O)Nc2ccc3c(c2)OCCO3)c1,inactive
24,O=C(CSc1nnc(-c2ccccn2)o1)Nc1cccc(Cl)c1,"inconclusive: 1 µM [activator, single point]"
25,COc1ccc2nc(N3CCCC(O)C3)c(C#N)cc2c1 (stereo not given),"inconclusive: 3.98 µM [activator, partial curve]"
26,COc1ccccc1C(=O)Nc1nc2cc3c(cc2s1)OCCO3,"inconclusive: 1 µM [activator, full curve]"
27,O=C(CCN1C(=O)c2ccccc2C1=O)Nc1ccc(-c2cn3ccsc3n2)cc1,"inconclusive: 2.82 µM [activator, partial curve]"

row,SMILES,Potency
1,CC(C)(C)c1ccc(NC(=O)Nc2ccc(OCC(=O)N3CCOCC3)cc2)cc1,active: 3.16 µM
2,O=C(CSc1nc2ccccc2[nH]1)c1ccco1,"inconclusive: 3.16 µM [activator, partial curve]"
3,COc1ccc2cc(-c3cc(C(=O)OCC(=O)Nc4c(C)n(C)n(-c5ccccc5)c4=O)c4ccccc4n3)ccc2c1,"inconclusive: 0.501 µM [activator, full curve]"
4,Cc1cc(NC(=S)Nc2cccc3ccccc23)n[nH]1,"inconclusive: 3.55 µM [activator, partial curve]"
5,CCCOc1cccc(-c2cc(C(=O)NNC(=S)NCC)c3ccccc3n2)c1,inactive
6,CCC(=O)Nc1nc(-c2ccc3c(c2)OCCO3)cs1,active: 0.501 µM
7,N#C/C(=C/c1ccc(N2CCOCC2)o1)c1ccc(Br)cc1,"inconclusive: 3.98 µM [activator, single point]"
8,O=C(CN1CCN(c2ccccc2O)CC1)Nc1ccccc1C(=O)NCCc1ccccc1,"inconclusive: 2.82 µM [activator, partial curve]"
9,CC(C)(C)c1ccc(SCCc2cccnc2)cc1,active: 2 µM
10,COc1ccc(-c2cc(=O)c3cc(OC)ccc3o2)cc1,active: 0.501 µM
11,CSCCC(NS(=O)(=O)c1ccc2c(c1)c(=O)n(C)c(=O)n2C)C(=O)NC1CCN(Cc2ccccc2)CC1 (stereo not given),inactive
12,O=C(Cc1csc(NC(=O)Nc2ccc(Cl)cc2)n1)NCc1ccccn1,"inconclusive: 2.82 µM [activator, single point]"
13,O=C(NCc1ccco1)c1cc(-c2cccs2)on1,active: 3.16 µM
14,O=[N+]([O-])c1ccc(-c2ncc(-c3ccc(Br)cc3)o2)cc1,"inconclusive: 3.55 µM [activator, single point]"
15,COc1ccc2oc(C(=O)Nc3ccc(S(=O)(=O)N(C)C4CCN(C)CC4)cc3)c(C)c2c1,inactive
16,O=C(Nc1ccccc1)OCc1ccccn1,"inconclusive: 4.47 µM [activator, partial curve]"
17,CCc1ccc(C(=O)Cc2cc3cccc(OC)c3oc2=O)cc1,"inconclusive: 3.55 µM [activator, single point]"
18,O=C1C(Cl)=C(NCC2CCCO2)C(=O)N1CCc1ccccc1 (stereo not given),"inconclusive: 3.16 µM [activator, partial curve]"
19,Cc1ccc(S(=O)(=O)Nc2ccc(Oc3cccnc3)nc2)cc1,inactive
20,CN1/C(=C/C(=O)C2CCC2)Sc2ccccc21,"inconclusive: 5.62 µM [activator, single point]"
21,O=C(Nc1cccc(Cl)c1)Nc1ccc2c(c1)OCO2,active: 2.51 µM
22,COc1ccc(NC(=O)Nc2ncccc2C)cc1,"inconclusive: 3.16 µM [activator, partial curve]"
23,Cn1c(SCc2cccc(F)c2)nnc1-c1cnccn1,"inconclusive: 3.98 µM [activator, single point]"
24,O=C(Nc1nnc(SCC(=O)N2CCCc3ccccc32)s1)c1ccccc1,"inconclusive: 3.16 µM [activator, partial curve]"
25,O=C(Nc1ccccn1)c1ccc2ccccc2c1O,active: 3.16 µM
26,CCCCCc1ccc(-c2cn(CC3CCCCC3)nn2)cc1,"inconclusive: 2.82 µM [activator, partial curve]"
